Source: article PMC4336329 (PLoS ONE, 2015)
Among all 310,000 compounds or so, about 14,000 (4.5%) showed an effect of 50% or more. The effect is printed as a negative number. The list shows a part of the results. Where a SMILES comes first, the peptide text is derived from it. The star is where a group is joined. Boc = CC(C)(C)OC(=O)*

Target: human ether-à-go-go-related gene (hERG) potassium channel (human, UniProt Q12809)
Test: primary screen, population patch clamp on CHO cells stably expressing hERG
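Further: peak tail current of the secondary pulse compared with the same well before compound.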

Chain of human ether-à-go-go-related gene (hERG) potassium channel (Q12809 whole entry, looked up): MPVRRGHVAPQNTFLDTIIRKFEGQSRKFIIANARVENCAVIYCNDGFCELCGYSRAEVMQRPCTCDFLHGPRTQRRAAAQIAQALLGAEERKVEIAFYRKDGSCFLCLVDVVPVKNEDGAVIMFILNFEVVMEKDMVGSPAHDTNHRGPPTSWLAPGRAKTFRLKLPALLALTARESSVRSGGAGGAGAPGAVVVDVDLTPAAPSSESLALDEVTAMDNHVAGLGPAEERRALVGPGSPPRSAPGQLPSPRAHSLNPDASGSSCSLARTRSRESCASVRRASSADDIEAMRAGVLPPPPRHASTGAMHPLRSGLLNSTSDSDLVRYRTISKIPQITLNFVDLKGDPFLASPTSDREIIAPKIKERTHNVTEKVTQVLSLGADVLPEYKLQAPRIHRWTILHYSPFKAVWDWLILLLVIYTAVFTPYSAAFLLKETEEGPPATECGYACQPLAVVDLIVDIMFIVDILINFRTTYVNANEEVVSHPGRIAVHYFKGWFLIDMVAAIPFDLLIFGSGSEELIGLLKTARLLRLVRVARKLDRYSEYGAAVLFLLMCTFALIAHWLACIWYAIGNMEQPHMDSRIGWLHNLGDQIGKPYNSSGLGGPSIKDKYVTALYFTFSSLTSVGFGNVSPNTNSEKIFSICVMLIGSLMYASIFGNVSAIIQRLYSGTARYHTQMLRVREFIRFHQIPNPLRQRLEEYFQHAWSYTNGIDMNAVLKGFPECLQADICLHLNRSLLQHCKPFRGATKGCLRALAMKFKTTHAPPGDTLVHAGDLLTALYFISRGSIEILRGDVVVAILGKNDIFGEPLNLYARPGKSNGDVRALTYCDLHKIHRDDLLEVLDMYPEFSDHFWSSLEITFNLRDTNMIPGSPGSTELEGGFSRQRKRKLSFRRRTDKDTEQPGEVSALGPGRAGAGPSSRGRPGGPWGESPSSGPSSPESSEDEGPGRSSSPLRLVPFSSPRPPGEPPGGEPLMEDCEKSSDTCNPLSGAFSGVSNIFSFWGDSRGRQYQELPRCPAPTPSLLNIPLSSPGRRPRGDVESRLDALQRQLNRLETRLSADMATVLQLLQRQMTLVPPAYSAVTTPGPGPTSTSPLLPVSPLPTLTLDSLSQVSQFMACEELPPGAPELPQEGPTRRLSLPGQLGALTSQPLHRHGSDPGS

Compound | hERG current change (%, negative = inhibition) at 10uM [%]
COc1cc(SC)ccc1C(=O)OCC(=O)NCCC1=CCCCC1 | -6.93
COc1ccccc1-c1nnc(NC(=O)c2ccccc2F)o1 | 4.29
CCCc1cc(SCC(=O)Nc2c(C)n(C)n(-c3ccccc3)c2=O)n2c(nc3ccccc32)c1C#N | 10.5
O=C(OCC(=O)c1c[nH]c2ccccc12)C1=COCCO1 | 12.8
Cc1c(C(=O)NCC2CCCO2)oc2ccc3c(c12)C(=O)CC(C)(C)O3 (centres unmarked) | 2.71
FC(F)(F)c1nc2nncn2c2c1CCCCC2 | -7.44
Cc1cccc(N2CC3=C(C2=O)C(c2ccccc2)NC(=O)N3C)c1 (centres unmarked) | -14.6
COC(=O)CCC(=O)Nc1nccs1 | 5.89
O=C(CCc1nc(-c2ccccc2F)no1)Nc1cccnc1 | 3.85
CCc1ccccc1NC(=O)c1cc(-c2cccs2)on1 | 12.3
CN(C(=O)CN1C(=O)NC(c2ccccc2)(c2ccccc2)C1=O)C1CCS(=O)(=O)C1 (centres unmarked) | 0.0325
CCSc1nnc([C@H](Cc2c[nH]c3ccccc23)NC(=O)OC(C)(C)C)o1 | -21.5
Cc1cccc(C(=O)Nc2sc(C)c(-c3ccccc3)c2C#N)c1 | 10.9
COc1c(OC(C)=O)ccc(/C=C/c2ccc3cccc(OC)c3n2)c1[N+](=O)[O-] | 6.77
Cc1cccc(C)c1NC(=O)c1nc(S(=O)(=O)Cc2ccccc2)ncc1Cl | -1.03
COc1cc(SC)ccc1C(=O)Nc1nccs1 | -17.3
Cc1ccc(C)c(NC(=O)CCN2CCN(C)CC2)c1 | 11.1
Cc1nn(CC(=O)OCCOc2ccc(Br)cc2)c(C)c1[N+](=O)[O-] | -14.5
c1ccc(Cc2nc3ccccc3[nH]2)cc1 | -6.39
O=c1[nH]nc(-c2cccs2)c2ccccc12 | 6.15
CCCCOc1ccc(/C=C/C(=O)OCC(=O)NC2CCS(=O)(=O)C2)cc1OCC (centres unmarked) | -8.83
CN(C)S(=O)(=O)c1cccc(C(=O)OCC(=O)NCc2ccccc2)c1 | -21.4
COc1ccc(S(=O)(=O)N2CCOCC2)cc1NC(=O)c1cccc(-n2cccc2)c1 | -41.4

Compound | hERG current change (%, negative = inhibition) at 10uM [%]
CN(Cc1cn(C)nc1-c1cccc(Cl)c1)Cc1nccn1C | -19.5
CN(C(=O)c1ccc(OC2CCN(CCc3ccccc3)CC2)cc1)C1CCOC1 (centres unmarked) | -25.3
CC1CCC/C(=N\NC(=S)NCc2ccccc2)C1 (centres unmarked) | -14.4
COc1ccc(S(=O)(=O)Cc2ccc(C(=O)N3CCN(C(=O)c4ccco4)CC3)o2)cc1 | -26.5
Cc1ccc(NC(=S)N(CCCN2CCOCC2)Cc2ccco2)cc1C | -31.9
CCc1ccc(CNC(=O)CCCn2nc(C)n3ccnc3c2=O)cc1 | -11.3
O=c1c2ccccc2nc(SCc2nnc(-c3ccccc3)o2)n1-c1ccccc1 | -7.61
CCOC(=O)CCc1nc2ccccc2[nH]1 | 12.2
Cl.NCCCCC(=O)O | 6.26
C=CCN1C(=O)c2ccc(C(=O)N3CCC(C(N)=O)CC3)cc2C1=O | 16.8
Cc1ccc2oc(=O)c3cnn(CC(=O)N(Cc4ccco4)C4CCCCC4)c3c2c1 | -9.94
CCOC(=O)c1ccccc1NC(=O)COC(=O)CSC(C)C(=O)Nc1cc(C)on1 (centres unmarked) | 14.8
Cn1nccc1C(=O)N/N=C/c1ccccc1[N+](=O)[O-] | 11.6
O=C(c1cc(COc2ccc3ncccc3c2)on1)N1CCCC(O)C1 (centres unmarked) | 14.4
Cn1nnnc1SCc1cn2cccnc2n1 | 4.29
COC(=O)c1cc(=O)cc(C(=O)OC)o1 | 3.43
O=C1NC(=O)/C(=C\c2ccc(Oc3ccc([N+](=O)[O-])cn3)cc2)S1 | 18.2
Cc1ccc(S(=O)(=O)N2CCN(c3nc(C(C)C)c4c(c3C#N)CC(C)(C)OC4)CC2)cc1 | 21.1
CC12CCC(=O)N1C(C(=O)OCC(=O)Nc1cc(S(=O)(=O)N3CCCCC3)ccc1Cl)CS2 (centres unmarked) | -48.2
CC(=O)Nc1ccc(S(=O)(=O)N2CCC(c3nc4ccc(C)cc4[nH]3)CC2)cc1 | -34.5
CCn1c(C)cc(O)cc1=O | 8.88
Cc1cc(C(=O)CSc2nnnn2C)c(C)n1-c1cccc(F)c1 | -23.8
NC(=O)c1ccc(NC(=O)c2cc(S(=O)(=O)N3CCCCC3)ccc2N2CCOCC2)cc1 | -13.9

Compound | hERG current change (%, negative = inhibition) at 10uM [%]
Cc1cc(C)c(CN2CCC(n3nccc3NC(=O)CCOc3ccccc3)CC2)cc1C | -26.1
Clc1cccc(CN2CCCCCC2)c1 | 12.3
CCCCNC(=O)c1onc(CS(=O)(=O)c2ccccn2)c1C(=O)NCCCC | -27.6
Cc1ccc(S(=O)(=O)N2CCN(C(=O)c3ccc(COc4ccccc4)o3)CC2)cc1 | -0.773
CCSC1=NCCN1C(=O)C(C)(C)Oc1ccc(Cl)cc1 | 4.55
O=C(NNC(=O)C1[C@H]2CCCC[C@@H]12)NC1CCCCC1 (some centres unmarked) | 3.77
Cc1cccc(CN2CCCN(Cc3ccc(Cl)cc3)S2(=O)=O)c1 | 14
CC(=O)c1c(C)nc(-c2ccccc2)nc1NC(=O)Cc1ccccc1 | 9.04
CCCc1nc2ccccc2c(=O)n1-c1c(C)n(C)n(-c2ccccc2)c1=O | 8.6
CC[C@]1(c2ccccc2C)ON(c2ccccc2C(F)(F)F)C1=O | 17.1
O=C(O)C(=O)O.O=C(c1ccccc1)N1CCN(Cc2ccccc2C(F)(F)F)CC1 | -19.2
CCN(CC)CCCNC(=O)c1cc2c(=O)[nH]c3ccc(C)cc3c2s1 | 8.67
CC1CN(CCCCN2C(=O)c3ccccc3C2=O)CC(C)O1.O=C(O)C(=O)O (centres unmarked) | 4.66
CC(C)CC(NC(=O)C1CCC(=O)N1C(=O)OCc1ccccc1)C(=O)NC(Cc1ccccc1)C(N)=O (centres unmarked) | 19.8
Cc1nc(SCc2cccc(F)c2)[nH]c(=O)c1C#N | -11.5
COc1cc2nc(CN3C(=O)c4ccccc4C3=O)oc(=O)c2cc1OC | 17.9
CCC(C)C(NC(=O)OC(C)(C)C)C(=O)NC(C)C(N)=O (stereo not drawn) (Boc-Ile-Ala-NH2; configuration not given here) | 16.1
CCOc1ccccc1NC(=O)c1ccc(S(=O)(=O)N2CCCCC2)cc1 | 6.41
N/C(Cn1nnc(-c2ccccc2)n1)=N\O | -2.1
COC(=O)c1sccc1NC(=S)NCc1ccc(Cl)cc1 | 9.11
COc1ccccc1CNC(=O)C1CCN(c2ncnc3c2nc2n3CCCCC2)CC1 | 6.69
COc1ccc(C2Cc3ccccc3C(=O)O2)cc1 (centres unmarked) | -11.2
CCCCNC(=O)[C@]1(C)CCC[C@@]2(C)C3CC[C@@]4(C)C[C@]3(CCC21)CC4=O (some centres unmarked) | -5.36

Compound | hERG current change (%, negative = inhibition) at 10uM [%]
Cc1ccc(C(OC(=O)c2ccco2)C(=O)NC(C)(C)C)cc1 (centres unmarked) | 10.8
COc1ccc(N2CC(C(=O)Nc3nc4ccc(OC)cc4s3)CC2=O)cc1 (centres unmarked) | -58.8
Cc1ccc(S(=O)(=O)N2CCOCC2)cc1NC(=O)CSc1cccc[n+]1[O-] | -12.6
Cc1cccc(C)c1NC(=O)c1cccc(COc2cc(Cl)ccc2Cl)c1 | 1.43
COc1ccc(OCCCC(=O)OC(C)C(=O)Nc2ccc(S(N)(=O)=O)cc2)cc1 (centres unmarked) | -9.14
CCOC(=O)Cc1csc(NC(=O)c2ccc(Cl)nc2)n1 | 9.35
CCC(=O)Nc1ccc(-c2nnc(-c3ccccc3)o2)cc1 | 2.6
COCCOC(=O)c1c(C)n(C)c2ccc(OC(=O)c3ccccc3F)cc12 | 3.15
CCN(CC)C(=O)C(=O)N/N=C/c1cccs1 | 14.7
O=C(NNC(=S)Nc1ccccc1)c1cc(-c2cccnc2)nc2ccccc12 | 26.4
O=C(N/N=C/c1cc2c(cc1[N+](=O)[O-])OCO2)c1cccnc1 | -1.62
O=C(Nc1ccnn1C1CCN(C(=O)c2ccccc2C(F)(F)F)CC1)C1CC1 | 29.3
CC(=O)Oc1ccc2oc(/C=C/N(C)C)c([N+](=O)[O-])c2c1 | 11.9
Cn1c(N/N=C\c2cccc(O)c2)cc(=O)n(C)c1=O | 1.59
O=C(O)c1ccc(N2CCOCC2)c(N2C(=O)C3C4C=CC(C4)C3C2=O)c1 (centres unmarked) | 17.2
CN(C)CC(=O)Nc1cc(C(F)(F)F)ccc1Cl | 11.2
CC(=O)Oc1cccc(N2C(=O)CC(Nc3ccc(N4CCOCC4)cc3)C2=O)c1 (centres unmarked) | -1.67
COc1cccc(S(=O)(=O)NCC(=O)N2CCCC2)c1 | 19.9
CSc1ccccc1NC(=O)CN(C)CC(=O)Nc1cccc(Br)c1 | -12.3
CN(Cc1ccccc1)c1nc2c(c(=O)n(C)c(=O)n2C)n1CCCc1ccccc1 | -20.7
